Assay results from PubChem BioAssay AID588855 (National Center for Advancing Translational Sciences (NCATS), 2011).
Values joined by “and” are separate entries in the source; they are usually repeats but may differ in a detail not shown here. Equal entries are not always repeated. The whole screen tested about 410,000 compounds, of which about 5,000 (1.2%) were called active. The inconclusive results got no clear call from the source; some entries with a clear call stand among them for comparison. Calls follow the shape of the dose curve; as a rule, active = well fitted inhibition curve with a large enough effect; inconclusive = small, poorly fitted or top-dose-only effect; inactive = no such curve, though single readings can be large or run the other way. Where the call is inconclusive, the potency comes from a doubtful curve fit.

experiment: qHTS for Inhibitors of TGF-b; settings: HepG2 CAGA-GFP TGF-b/SMAD3 reporter, GFP fluorescence, 18 h, TGF-beta stimulated, 500 pg/mL final; series mostly up to 46.1 µM; also: nearly all actives have a fitted effect of over 65% in size
Outline: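 Smad-responsive CAGA-GFP expression was quantified in HEPG2 cells exposed to compounds and 500 pg/mL final TGF-beta for 18 h at 37 degrees C; unstimulated wells defined full inhibition.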
Potency is read from the fitted curve at half-maximal effect; tags tell the direction and shape of the fitted curve.

Structure (SMILES)	Potency
CCOC(=O)c1c(C)[nH]c(C(=O)OC(C)C(=O)Nc2ccc(C)cc2)c1C (configuration not stated)	inactive
O=C(CSc1nnc(-c2cccs2)n1-c1ccccc1)N1CCOCC1	inactive
COc1cccc2c1Oc1ncccc1N(c1ccc(C(=O)NCc3ccccc3Cl)s1)C2	inconclusive: 22.4 µM [inhibitor, single point]
Cc1ccccc1OCCn1c(C)nc2ccccc21	inactive
CCc1ccc(C2CC(=O)c3c([nH]c(C(=O)OCCOc4ccccc4)c3C)C2)cc1 (configuration not stated)	inactive
COc1ccc(Nc2cc(C)nc3c(C)c(C)ccc23)cc1	inconclusive: 35.5 µM [inhibitor, single point]
O=C(CC1NCCc2ccccc21)Nc1ccc(Cl)cc1 (configuration not stated)	inactive
COCOCCn1cc(CN2CCS(=O)(=O)N(Cc3ccc(-c4ccc(OC)cc4)cc3)C(CC(C)C)C2=O)nn1 (configuration not stated)	inconclusive: 35.5 µM [inhibitor, partial curve, poor fit]
C=CCc1cccc(/C=N/NC(=O)CCCNc2ccc(C)cc2)c1O	inconclusive: 35.5 µM [inhibitor, single point]
CCN(CC)CCNC(=O)c1cc2c(=O)n(C)c3ccccc3c2n1C	inactive
COc1cc(OC)cc(C(=O)NNC(=O)c2ccc3ccccc3n2)c1	inconclusive: 35.5 µM [inhibitor, single point]
Cc1ccc(Cl)cc1N1CCN(S(=O)(=O)c2ccc3[nH]c(=O)ccc3c2)CC1	inconclusive: 35.5 µM [inhibitor, single point]
CC(C)c1ccc(C2c3c(-c4ccccc4O)n[nH]c3C(=O)N2Cc2ccncc2)cc1 (configuration not stated)	inconclusive: 35.5 µM [inhibitor, single point]
CCCCOC(=O)CSc1nnc(-c2ccc(C)cc2)o1	inactive
Cc1cc(C)c2nc(N3CCCC(C(=O)NCCCN4CCOCC4)C3)sc2c1 (configuration not stated)	inactive
Cc1cccc(NC(=O)c2ccc(F)c(S(=O)(=O)N3CCC4(CC3)OCCO4)c2)c1	inactive
CCOC(=O)N1CCC(NC(=O)CSCc2nc(-c3ccccc3Cl)oc2C)CC1	inconclusive: 17.8 µM [inhibitor, single point]
Cc1ccc(C)c(N2CCN(CCCNC(=O)Cn3cc4c(n3)CCCCC4)CC2)c1	inconclusive: 35.5 µM [inhibitor, single point]
CCOC(=O)C(C)Oc1cccc2c(=O)n(CC(=O)NCCc3ccc(OC)c(OC)c3)ccc12 (configuration not stated)	inconclusive: 35.5 µM [inhibitor, single point]
CCc1nc2c(OCc3ccc(C(F)(F)F)cc3)cccn2c1N(C=O)Cc1ccc(OC)cc1	inconclusive: 15.8 µM [inhibitor, single point]
CC1CCCCC1NC(=O)CN1c2cccc3cccc(c23)S1(=O)=O (configuration not stated)	inconclusive: 0.178 µM [inhibitor, full curve, poor fit]
Cc1ccccc1CS(=O)(=O)CCC(=O)NCCN1CCN(c2cccc(Cl)c2)CC1	inconclusive: 35.5 µM [inhibitor, single point]
O=C(NCc1ccc(F)cc1)c1cnc(N2CCCCC2)c2ccccc12	inactive

Structure (SMILES)	Potency
CCOC(=O)CN1C(=O)C2Cc3ccccc3CN2C1=S (configuration not stated)	inconclusive: 35.5 µM [inhibitor, single point]
COc1ccc(N2C(=O)/C(=C/c3ccc([N+](=O)[O-])cc3)C=C2c2ccccc2)cc1	inactive
COC(=O)c1ccc(CNC(=O)c2cc(COc3cncc(Cl)c3)on2)cc1	inactive
COc1ccc(C(C)(C)C)cc1NC(=O)c1cncc(Br)c1	inconclusive: 28.2 µM [inhibitor, partial curve, poor fit]
O=S(=O)(Nc1nc2ccc(S(=O)(=O)N3CCCCC3)cc2s1)c1ccccc1	inconclusive: 8.91 µM [inhibitor, partial curve]
COc1cc(OC)cc(C(=O)Nc2ccc3nc(Nc4cccc(C(F)(F)F)c4)cc(C)c3c2)c1	inconclusive: 22.4 µM [inhibitor, single point]
COc1ccc(-c2oc3ccc(N4CCOCC4)cc3c2C#Cc2ccc(N)cc2)cc1	inconclusive: 35.5 µM [inhibitor, single point]
Cc1cc(C)c(S(=O)(=O)/N=C2/C=C(SCC(=O)O)C(=O)c3ccccc32)cc1C	inconclusive: 17.8 µM [inhibitor, single point]
CC1CCCCN1CCNC(=O)c1ccc2c(c1)N(Cc1ccccc1F)C(=O)c1ccccc1S2=O (configuration not stated)	inactive
COc1ccc(/C=N/Nc2nc(Nc3ccccc3)nc(N3CCCC3)n2)cc1	inconclusive: 0.562 µM [inhibitor, full curve, poor fit]
CCOc1ccc(OCC)c(NC(=O)CCc2nc3cccnc3n2-c2ccccc2)c1	inactive
O=c1c2ccccc2nc(-c2ccc(Cl)c(Cl)c2)n1O	inconclusive: 0.631 µM [inhibitor, full curve, poor fit]
COc1ccccc1N1CCN(C(=O)CSc2n[nH]c(-c3ccccc3Cl)n2)CC1	inactive
COC(=O)C(NC(=O)CCc1c(C)nc2c(c(C)nn2-c2ccccc2)c1C)C(C)C (configuration not stated)	inconclusive: 35.5 µM [inhibitor, single point]
CCc1ccc(S(=O)(=O)Nc2ccc(-c3ccc(N4CCCC4)nn3)cc2)cc1	inactive
C=CCN(CC=C)S(=O)(=O)c1ccc(NC(=S)NC(=O)/C=C/c2ccccc2)cc1	inconclusive: 20 µM [inhibitor, single point]
CCOc1cccc2cc(C(=O)NCc3ccccc3)c(=N)oc12	inactive
O=C(COC(=O)c1cc(-c2ccc(Cl)s2)nc2ccccc12)NCc1ccco1	inconclusive: 35.5 µM [inhibitor, single point]
O=C(CSc1nccc(-c2cccs2)n1)Nc1ccc(F)c(Cl)c1	active: 12.6 µM
COc1ccc(CN2CCC2(C)C(=O)Nc2ccc(OC)c(OC)c2)cc1 (configuration not stated)	inactive
Cc1[nH]c2ccccc2c1C1(O)C(=O)N(Cc2ccccc2Cl)c2ccccc21 (configuration not stated)	inconclusive: 35.5 µM [inhibitor, single point]
CC1CCn2c(nc3cc(C(=O)NCc4ccccc4)ccc32)C1 (configuration not stated)	inconclusive: 0.562 µM [inhibitor, full curve, poor fit]
CCNc1nc(Cl)nc(N(NC(C)=O)C(C)CC)n1 (configuration not stated)	inactive

Structure (SMILES)	Potency
CCOC(=O)Cc1ccc(Nc2nc(NCc3ccccc3)nc3ccsc23)cc1	inconclusive: 15.8 µM [inhibitor, single point]
COc1ccc(CN2CCN(C(=O)CCC(=O)c3ccc(C)s3)CC2)cc1OC	inactive
O=C(Cn1ccc(=O)[nH]c1=O)c1ccc([N+](=O)[O-])o1	inconclusive: 20 µM [inhibitor, single point]
COc1ccc(CNC(=O)Nc2cccs2)cc1OC	inactive
O=C(Nc1ccc(Br)cc1)C1CCN(C(=O)c2ccc(F)cc2)CC1	inconclusive: 11.2 µM [inhibitor, single point]
C[C@@]12CCC=C[C@H]1[C@H](c1ccc(F)c(/C=C/c3ccccc3)c1)N(Cc1ccccc1)C2=O	inconclusive: 15.8 µM [inhibitor, single point]
O=C(C1CCCN(S(=O)(=O)c2cccc3nsnc23)C1)N1CC=C(c2ccccc2)CC1 (configuration not stated)	inconclusive: 11.2 µM [inhibitor, partial curve, poor fit]
CC(=O)Nc1ccc(S(=O)(=O)Nc2nc3ccccc3nc2N2CCc3ccccc3C2)cc1	inconclusive: 15.8 µM [inhibitor, single point]
CC(C)CC1C(=O)N(Cc2cn(CCC3OCCO3)nn2)CCS(=O)(=O)N1Cc1ccc(-c2ccccc2)cc1 (configuration not stated)	inconclusive: 35.5 µM [inhibitor, single point]
Cc1ccc(S(=O)(=O)n2ccc(OC(=O)c3cccs3)n2)cc1	inconclusive: 0.282 µM [inhibitor, full curve, poor fit]
Cc1ccc(-c2nn(-c3cccc(F)c3)cc2CN(Cc2nccn2C)C(C)C)o1	inconclusive: 12.6 µM [inhibitor, partial curve, poor fit]
Cc1cc(-c2ccc(C)c(S(=O)(=O)NCC3CCN(Cc4ccc(F)cc4)CC3)c2)on1	inconclusive: 12.6 µM [inhibitor, partial curve, poor fit] and inconclusive: 35.5 µM [inhibitor, single point]
O=C(O)c1c(CNCc2cccc(F)c2)c2ccccc2n1Cc1ccccc1	inconclusive: 14.1 µM [inhibitor, partial curve, poor fit]
Cc1nc(CSc2ccc(Cl)cc2)cc(N2CC(C)OC(C)C2)n1 (configuration not stated)	inconclusive: 17.8 µM [inhibitor, single point]
COc1ccc(OC)c(CNC(=O)c2nn(C)c3c2CSc2ccccc2-3)c1	inconclusive: 7.08 µM [inhibitor, full curve]
CC1(C)Cc2c(sc(NC(=O)c3ccccc3)c2C(=O)O)CO1	inconclusive: 11.2 µM [inhibitor, partial curve, poor fit]
Fc1cccc(Cl)c1Cn1c(-c2cccs2)nc2ccccc21	inconclusive: 35.5 µM [inhibitor, single point]
COc1ccc(C(=O)NCC(C)(c2ccccc2)c2ccccc2)cc1S(=O)(=O)N1CCOCC1	inactive
O=C(NCc1ccc(F)cc1)c1ccc2nc(N3CCCCC3)sc2c1	inactive
CC(=O)Nc1cc2c(cc1[N+](=O)[O-])-c1ccccc1C2O (configuration not stated)	inactive
Cc1cc(C)cc(NC(=O)CCCn2c3ccccc3c(=O)c3ccccc32)c1	inconclusive: 10 µM [inhibitor, partial curve, poor fit]
